Results: publication PMC4336329 (PLoS ONE, 2015)
In all, about 310,000 compounds went through this assay and about 2,200 (0.71%) showed an effect of 50% or more. The effect is printed as a negative number. The list shows a part of the results.

Molecular target: human ether-à-go-go-related gene (hERG) potassium channel (human, UniProt Q12809)
Assay: primary screen, population patch clamp on CHO cells stably expressing hERG

Chain of human ether-à-go-go-related gene (hERG) potassium channel (Q12809 whole entry, looked up): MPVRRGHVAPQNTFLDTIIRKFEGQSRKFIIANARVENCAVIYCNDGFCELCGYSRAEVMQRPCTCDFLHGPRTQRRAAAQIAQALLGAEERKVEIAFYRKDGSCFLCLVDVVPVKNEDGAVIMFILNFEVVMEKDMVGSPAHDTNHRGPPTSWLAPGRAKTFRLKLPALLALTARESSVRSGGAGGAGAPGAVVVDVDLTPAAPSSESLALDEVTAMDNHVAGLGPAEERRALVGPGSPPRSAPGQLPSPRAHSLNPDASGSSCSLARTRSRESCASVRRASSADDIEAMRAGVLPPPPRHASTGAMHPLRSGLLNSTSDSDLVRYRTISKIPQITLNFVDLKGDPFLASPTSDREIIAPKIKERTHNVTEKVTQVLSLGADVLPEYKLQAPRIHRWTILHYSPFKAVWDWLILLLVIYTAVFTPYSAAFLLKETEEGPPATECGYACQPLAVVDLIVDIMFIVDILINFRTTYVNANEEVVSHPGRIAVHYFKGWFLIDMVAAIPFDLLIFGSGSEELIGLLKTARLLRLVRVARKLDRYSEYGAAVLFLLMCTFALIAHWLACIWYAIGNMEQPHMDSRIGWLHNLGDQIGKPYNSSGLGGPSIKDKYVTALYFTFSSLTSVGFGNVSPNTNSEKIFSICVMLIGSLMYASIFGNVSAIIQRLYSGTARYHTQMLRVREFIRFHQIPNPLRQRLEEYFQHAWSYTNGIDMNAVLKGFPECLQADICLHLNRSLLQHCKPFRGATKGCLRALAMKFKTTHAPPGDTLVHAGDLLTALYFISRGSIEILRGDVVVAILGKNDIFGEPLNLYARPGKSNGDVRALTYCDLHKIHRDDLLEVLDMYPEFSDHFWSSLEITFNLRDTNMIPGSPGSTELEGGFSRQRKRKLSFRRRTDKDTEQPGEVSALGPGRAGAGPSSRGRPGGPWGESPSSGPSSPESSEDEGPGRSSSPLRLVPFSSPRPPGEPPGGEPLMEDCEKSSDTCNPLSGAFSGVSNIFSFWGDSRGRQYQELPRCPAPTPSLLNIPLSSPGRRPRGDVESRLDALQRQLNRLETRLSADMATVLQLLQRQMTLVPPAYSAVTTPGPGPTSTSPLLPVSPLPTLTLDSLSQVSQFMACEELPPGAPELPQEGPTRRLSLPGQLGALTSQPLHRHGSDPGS

SMILES | hERG current change (%, negative = inhibition) at 1uM [%]
CCCCOCCCNC(=O)C1c2ccccc2Oc2ccccc21 | 12.9
O=C(COc1ccc(Br)cc1Br)NC(=S)Nc1cccc(CO)c1 | 5.94
COc1ccc(CNC(=O)NC2CCCCC2)cc1 | 6.71
COCCN(C(=O)COC(=O)Cc1ccccc1)c1c(N)n(Cc2ccccc2)c(=O)[nH]c1=O | 9.85
CSCC[C@H](NC(=O)c1cccnc1)c1nnc2ccccn12 | -2.48
COc1ccc([C@H]2CC(=O)C=C(c3ccc4ccccc4c3)C2)cc1OC | 13
Fc1ccc(C2=CCN(C(c3cccs3)c3nnnn3CCc3ccccc3)CC2)cc1 (centres unmarked) | 16.3
CCC1CCCCN1CCCNC(=O)C1CCCN(c2ncnc3c2nc2n3CCCCC2)C1 (centres unmarked) | 14.4
CC(C)(C)NC(=O)NC(=O)COC(=O)COc1ccc2c(c1)CCC2 | -7.36
CC12CN3CCN(CC(C3)/C1=N/NC(=O)Nc1ccccc1)C2 | 19.6
CCN(CC(=O)Nc1c(F)cccc1F)C(=O)CCOc1ccc(C)cc1 | 2.42
COC(=O)c1sccc1NC(=O)Nc1cccc(Cl)c1Cl | 11
Cc1cc(C)c(NC(=O)CN2CCCCCC2)c(C)c1 | 8.43
COc1ccc(NC(=O)CSc2ccc3c(c2)OCCO3)cc1OC | 5.63
Cc1ccc(CNC(=O)CNS(=O)(=O)c2ccc3c(c2)C(C)(C)C(=O)N3C)cc1 | 8.57
CC1CCN(C(=O)C2CCC(C)(C(=O)O)C2(C)C)CC1 (centres unmarked) | 10.2
CCCCN1C(=O)N(C)C2NC(=S)NC21 (centres unmarked) | 13.4
O=C([C@H](Cc1ccccc1)N1C(=O)c2ccccc2C1=O)N1CCOCC1 | 10.9
COCCN(Cc1cc2cc3c(cc2nc1Cl)OCO3)C(=O)Nc1ccc(F)cc1 | 9.44

SMILES | hERG current change (%, negative = inhibition) at 1uM [%]
Cn1nc(C(=O)OCC(=O)Nc2ccc3ccccc3c2)c2ccccc2c1=O | 2.42
FC(F)(F)c1cccc(Oc2nc(-c3ccccc3)nnc2C(F)(F)F)c1 | -5.31
NC(=NC(=O)c1ccc(OC(F)(F)F)cc1)c1ccc(C(F)(F)F)cn1 | 10.5
Cc1cc(OC(C)C(=O)NCCCN2CCOCC2)ccc1Cl (centres unmarked) | -24.7
COC(=O)c1c(C)cc(C)n2c1nc1ccccc12 | -2.41
CCN(CC(=O)NCc1ccc(Cl)cc1)C(=O)COc1ccc(Cl)cc1Br | -6.44
COC(=O)C(C)Sc1nc(NCc2ccccc2)nc(N(C)C)n1 (centres unmarked) | 3.93
Cc1ccc(-n2nnnc2CS(=O)(=O)c2ccccc2)c(C)c1 | 17.6
CCN(CC)CCN=C1CCCc2ccccc2N1 | 1.06
CN(CC(=O)Nc1ccc(N2CCOCC2)cc1)C(=O)CCNC(=O)c1ccc(Br)cc1 | 10.3
Cc1ccc(C(=O)N/N=C(/CC(=O)c2cccs2)C(F)(F)F)cc1 | 8.14
Cc1ccc(NC(=O)C2CCCN(S(=O)(=O)c3cnc[nH]3)C2)cc1F (centres unmarked) | 8.33
Cn1ccc(C(=O)NC(=S)N2CCSCC2)n1 | 4.99
O=C(CN1CCN(c2ccccc2F)CC1)c1ccc2c(c1)OCO2 | 9.85
COc1ccccc1Cn1c(=S)[nH]c2cc(C(=O)NCC3CCCO3)ccc2c1=O (centres unmarked) | 15.9
Cc1onc(-c2c(Cl)cccc2Cl)c1C(=O)Nc1nccs1 | 13.7
CCOC(=O)N1CCN(C2=C(NS(=O)(=O)c3ccc(C)cc3)C(=O)c3ccccc3C2=O)CC1 | 29
CCn1c(SCC(=O)NC2CC2)nnc1-c1csc(C)c1 | 17
Cc1cccc(S(=O)(=O)Nc2nc3ccccc3nc2NCC2CCCO2)c1 (centres unmarked) | 14

SMILES | hERG current change (%, negative = inhibition) at 1uM [%]
CC[C@@H](C)[C@H](NC(=O)OC(C)(C)C)c1nnc(S(=O)(=O)Cc2cc(C)ccc2C)o1 | 12.2
O=C(N/N=C/c1ccc[nH]1)c1ccccc1OCc1ccccc1Cl | 9.26
CCOC(=O)N1CCN(C(=O)CS(=O)(=O)c2cn(Cc3ccccc3C)c3ccccc23)CC1 | 6.36
COC(=O)C1=C(CS(=O)(=O)c2cc(OC)ccc2OC)NC(=O)NC1c1ccc(O)c(OC)c1 (centres unmarked) | 0.397
Cc1ccc(CNC(=O)C2CCN(c3nnc(N4CCCC4=O)s3)CC2)cc1 | 12.5
CCn1c(Cc2ccccc2)nnc1SCc1ccc([N+](=O)[O-])cc1 | -8.03
CC(=O)Nc1ccc(OCC(O)Cn2c(C)nc3ccccc32)cc1 (centres unmarked) | 4.43
FC(F)(F)c1ccc(CN2C[C@@H]3C(c4ccc(C(F)(F)F)cc4)C4(c5cccnc5)CC3(C4)[C@H]2c2ccccc2)cc1 (some centres unmarked) | 17.1
Cc1ccc(N=Cc2c(O)[nH]c3ccccc23)c([N+](=O)[O-])c1 | -0.0231
Cc1cc(NC(=O)Cc2ccc(Br)cc2)no1 | 15.5
CCOC(=O)c1ccc(NC(=S)N(Cc2cccnc2)Cc2ccco2)cc1 | 7.3
CCOc1ccc(NC(=S)NCCN2CCN(Cc3ccccc3)CC2)cc1 | -34.2
O=C(O)Cc1csc(-c2cccc(Oc3ccccc3)c2)n1 | 4.68
O=C(CSc1nnc2ccccn12)Nc1ccccc1C(=O)NC1CC1 | 7.28
O=C(NC(=S)Nc1ccc(C(F)(F)F)cc1)c1csnn1 | 10.2
CCN1CCN(C(=S)Nc2cccc([N+](=O)[O-])c2)CC1 | -1.13
O=C(NCCOC(=O)c1ccc(Cl)c(S(=O)(=O)N2CCCCC2)c1)c1ccncc1 | -0.852
O=C(N/N=C/c1ccncc1)c1cc2c(ccc3ccccc32)o1 | 12.4
